The list shows a part of the results. The list includes weakly bound sequences.
target: T1, MBP-FoxP3dN (UniProt Q99JB6); experiment: PD-seq (MBP pull-down with sequencing); settings: 20 mM Tris-HCl pH 7.5, 100 mM NaCl, 1.5 mM MgCl2, 0.4 uM protein, 0.1 uM dsDNA library, 30 min, room temperature, amylose pull-down; high values mean tight binding; double strand, one strand shown
T1 sequence: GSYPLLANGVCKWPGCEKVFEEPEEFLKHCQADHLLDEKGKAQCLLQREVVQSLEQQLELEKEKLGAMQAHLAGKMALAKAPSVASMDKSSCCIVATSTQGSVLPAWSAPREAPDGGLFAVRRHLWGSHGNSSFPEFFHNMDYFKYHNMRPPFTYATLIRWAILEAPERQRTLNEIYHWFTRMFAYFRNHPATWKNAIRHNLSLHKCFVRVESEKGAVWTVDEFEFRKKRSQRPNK

Sequence | binding signal (RPM ratio (pull-down/input))
GATGATTGTTCTCCCAGCTGATGAATTTCTATATTCGAGTAAACAAATTTTCCTAATCTTTCTGTTCAAGCGCCATCTAC | 0.372
GATGATTGTTCTCCCAGCTGATGAATTGTTGCGCTCGAGTAAACAAATTTTCCTAATCTTTCTGTTCAAGCGCCATCTAC | 2.84
GATGATTGTTCTCCCAGCTGATGAATTGGTTTTATCGAGTAAACAAATTTTCCTAATCTTTCTGTTCAAGCGCCATCTAC | 1.42
GATGATTGTTCTCCCAGCTGATGAATTAGACAGGTCGAGTAAACAAATTTTCCTAATCTTTCTGTTCAAGCGCCATCTAC | 0.291
GATGATTGTTCTCCCAGCTGATGAATTGGGGCCATCGAGTAAACAAATTTTCCTAATCTTTCTGTTCAAGCGCCATCTAC | 0.982
GATGATTGTTCTCCCAGCTGATGAATTTCAAGTATCGAGTAAACAAATTTTCCTAATCTTTCTGTTCAAGCGCCATCTAC | 0.413
GATGATTGTTCTCCCAGCTGATGAATTGTAGAGCTCGAGTAAACAAATTTTCCTAATCTTTCTGTTCAAGCGCCATCTAC | 0.291
GATGATTGTTCTCCCAGCTGATGAATTAGTGTAATCGAGTAAACAAATTTTCCTAATCTTTCTGTTCAAGCGCCATCTAC | 1.7
GATGATTGTTCTCCCAGCTGATGAATTTCCCCTGTCGAGTAAACAAATTTTCCTAATCTTTCTGTTCAAGCGCCATCTAC | 0.2
GATGATTGTTCTCCCAGCTGATGAATTGAGCACTTCGAGTAAACAAATTTTCCTAATCTTTCTGTTCAAGCGCCATCTAC | 0.657
GATGATTGTTCTCCCAGCTGATGAATTTGATGCTTCGAGTAAACAAATTTTCCTAATCTTTCTGTTCAAGCGCCATCTAC | 3.44
GATGATTGTTCTCCCAGCTGATGAATTCCTCGAGTCGAGTAAACAAATTTTCCTAATCTTTCTGTTCAAGCGCCATCTAC | 0.216
GATGATTGTTCTCCCAGCTGATGAATTAAGGTGGTCGAGTAAACAAATTTTCCTAATCTTTCTGTTCAAGCGCCATCTAC | 0.367
GATGATTGTTCTCCCAGCTGATGAATTCGCGTGTTCGAGTAAACAAATTTTCCTAATCTTTCTGTTCAAGCGCCATCTAC | 1.44
GATGATTGTTCTCCCAGCTGATGAATTAGAGGTATCGAGTAAACAAATTTTCCTAATCTTTCTGTTCAAGCGCCATCTAC | 0.573
GATGATTGTTCTCCCAGCTGATGAATTCTTTCTGTCGAGTAAACAAATTTTCCTAATCTTTCTGTTCAAGCGCCATCTAC | 0.203
GATGATTGTTCTCCCAGCTGATGAATTATACAGATCGAGTAAACAAATTTTCCTAATCTTTCTGTTCAAGCGCCATCTAC | 0.39
GATGATTGTTCTCCCAGCTGATGAATTCATTTACTCGAGTAAACAAATTTTCCTAATCTTTCTGTTCAAGCGCCATCTAC | 3.24
GATGATTGTTCTCCCAGCTGATGAATTCACTCCGTCGAGTAAACAAATTTTCCTAATCTTTCTGTTCAAGCGCCATCTAC | 0.245
GATGATTGTTCTCCCAGCTGATGAATTATCATCCTCGAGTAAACAAATTTTCCTAATCTTTCTGTTCAAGCGCCATCTAC | 0.437

Sequence | binding signal (RPM ratio (pull-down/input))
GATGATTGTTCTCCCAGCTGATGAATTCCCGGTCTCGAGTAAACAAATTTTCCTAATCTTTCTGTTCAAGCGCCATCTAC | 0.253
GATGATTGTTCTCCCAGCTGATGAATTCCAGGGCTCGAGTAAACAAATTTTCCTAATCTTTCTGTTCAAGCGCCATCTAC | 0.233
GATGATTGTTCTCCCAGCTGATGAATTCACGGGATCGAGTAAACAAATTTTCCTAATCTTTCTGTTCAAGCGCCATCTAC | 0.217
GATGATTGTTCTCCCAGCTGATGAATTGGCGACATCGAGTAAACAAATTTTCCTAATCTTTCTGTTCAAGCGCCATCTAC | 0.744
GATGATTGTTCTCCCAGCTGATGAATTGCCCTCGTCGAGTAAACAAATTTTCCTAATCTTTCTGTTCAAGCGCCATCTAC | 0.459
GATGATTGTTCTCCCAGCTGATGAATTGTAGGCGTCGAGTAAACAAATTTTCCTAATCTTTCTGTTCAAGCGCCATCTAC | 0.778
GATGATTGTTCTCCCAGCTGATGAATTACCGTCTTCGAGTAAACAAATTTTCCTAATCTTTCTGTTCAAGCGCCATCTAC | 0.447
GATGATTGTTCTCCCAGCTGATGAATTGCTCGTGTCGAGTAAACAAATTTTCCTAATCTTTCTGTTCAAGCGCCATCTAC | 0.583
GATGATTGTTCTCCCAGCTGATGAATTAATGGAGTCGAGTAAACAAATTTTCCTAATCTTTCTGTTCAAGCGCCATCTAC | 0.304
GATGATTGTTCTCCCAGCTGATGAATTCACACTATCGAGTAAACAAATTTTCCTAATCTTTCTGTTCAAGCGCCATCTAC | 0.504
GATGATTGTTCTCCCAGCTGATGAATTTGCACATTCGAGTAAACAAATTTTCCTAATCTTTCTGTTCAAGCGCCATCTAC | 0.843
GATGATTGTTCTCCCAGCTGATGAATTTTCGCTGTCGAGTAAACAAATTTTCCTAATCTTTCTGTTCAAGCGCCATCTAC | 0.346
GATGATTGTTCTCCCAGCTGATGAATTTAGCCTTTCGAGTAAACAAATTTTCCTAATCTTTCTGTTCAAGCGCCATCTAC | 5
GATGATTGTTCTCCCAGCTGATGAATTGGCTCTCTCGAGTAAACAAATTTTCCTAATCTTTCTGTTCAAGCGCCATCTAC | 0.341
GATGATTGTTCTCCCAGCTGATGAATTCTCTGGGTCGAGTAAACAAATTTTCCTAATCTTTCTGTTCAAGCGCCATCTAC | 0.165
GATGATTGTTCTCCCAGCTGATGAATTAGTTCTTTCGAGTAAACAAATTTTCCTAATCTTTCTGTTCAAGCGCCATCTAC | 0.409
GATGATTGTTCTCCCAGCTGATGAATTGGATCTTTCGAGTAAACAAATTTTCCTAATCTTTCTGTTCAAGCGCCATCTAC | 0.239
GATGATTGTTCTCCCAGCTGATGAATTCTGATGCTCGAGTAAACAAATTTTCCTAATCTTTCTGTTCAAGCGCCATCTAC | 1.09
GATGATTGTTCTCCCAGCTGATGAATTCGGGGATTCGAGTAAACAAATTTTCCTAATCTTTCTGTTCAAGCGCCATCTAC | 0.395
GATGATTGTTCTCCCAGCTGATGAATTACGTTTTTCGAGTAAACAAATTTTCCTAATCTTTCTGTTCAAGCGCCATCTAC | 1.54
